Results taken from ChEMBL document CHEMBL1157539, “Thousands of chemical starting points for antimalarial lead identification” (Nature, 2010).
Whole data set: some 13,000 compounds, median “IFI” near 4, cut for the highest 2% near 17. This is one part of the list.

Assay: GSK_TCMDC: Inhibition Frequency Index (IFI). The number of non-kinase HTS assays where a compound showed > 50 % inhibition, expressed as a percentage of the number of such assays in which the compound was tested (-0 is zero)
Assay type: functional
Compound CC(C)Cn1cc2c(ccc3nc(N)nc(N)c32)n1 has an IFI of 1.56%.
For CCNc1cc(C)nc(Nc2ccccc2)n1, the IFI was 2.94%.
In the case of O=C(Nc1ccc(Cl)cc1)Nc1ccc(-c2csc(-c3nc4ccccc4[nH]3)c2)cc1, the IFI is reported as 3.57%.
CC(C)c1sc(N2CCCCC2)nc1C(=O)Nc1ccc(F)cc1C(F)(F)F showed an IFI of 0%.
Work on CCCCCCCc1c(C)nc2cc(OC)ccc2c1O yielded an IFI of -0%.
Work on COc1ccc2ncc(C#N)c(CCN3CCC(NCc4ccc5c(n4)NC(=O)CS5)CC3)c2n1 yielded an IFI of 3.73%.
For Cc1cccc(OCC2CCN(c3ncc(C(=O)NC4CC4)cc3Cl)CC2)c1, the IFI was -0%.
Work on CN1CCC[C@H]1COc1ccc(CN2CC[C@H](NC(=O)c3ccc(Cl)c(Cl)c3)C2)cc1Cl yielded an IFI of 6.67%.
Compound Cn1cccc1C(=O)NCC(CCNc1cc(=O)c2ccccc2[nH]1)NCc1cc(Br)cc(Br)c1 (configuration not stated) has an IFI of 7.25%.
Compound C=CCc1cc(OC)ccc1OCCCOc1c(C)nc(N)nc1N has an IFI of 3.7%.
c1ccc(COc2ccc(COc3ccc(Cn4ccnc4)cc3)cc2)cc1 gave an IFI of 2.91%.
With COc1ccc2nccc([C@@H](O)CN3CCC(NC(=O)C(c4ccsc4)N4CCN(c5ccccc5OC)CC4)CC3)c2c1 (some centres not stated) the IFI was -0%.
Compound Cc1ccc(Nc2cc(C)nn2-c2nc(C)cc(O)n2)cc1 has an IFI of 12.3%.
CS(=O)(=O)c1cccc(-c2cnc(N)c3cc(-c4ccc(F)cc4)ccc23)c1 gave an IFI of 5.38%.
Cc1cc(-c2cccc3c(NC(=O)N4CCc5cc6nccc(N7CCN8CCC[C@H]8C7)c6cc54)cccc23)cc(C)n1 gave an IFI of 8.03%.
With N#Cc1ccc2c(c1)CN(CCC1CCC(NC(=O)c3cc4cnccc4[nH]3)CC1)CC2 (configuration not stated) the IFI was 1.53%.
In the case of CCc1cn2c3c(cc(C(=O)N[C@@H](Cc4ccccc4)[C@H](O)CN[C@@H](C)CC)cc13)N(C)S(=O)(=O)CC2, the IFI is reported as 1.47%.
Compound CC1CN(c2ccnc3ccc(Sc4ccc(Oc5ccccc5)cc4)cc23)CC(C)N1 (configuration not stated) has an IFI of 13.6%.
Compound Cc1ccc(/C=C/C(=O)NCCCCCN2CCN(C(=O)Nc3ccc(Cl)c(C(F)(F)F)c3)CC2)cc1 has an IFI of 6.86%.
Work on CN1CCN(C(C(=O)NCc2cc(Cl)cc(Cl)c2)c2ccc(NC(=O)Nc3ccccc3)cc2)CC1 (configuration not stated) yielded an IFI of 5%.
Work on CC[C@H]1CN(Cc2cccc(O)c2)CC[C@H]1CCCc1ccnc2ccc(O)cc12 yielded an IFI of 8.45%.
In the case of Cc1nc(C)c(-c2cccc(Oc3ccc(Cl)cc3)c2)c(O)c1Br, the IFI is reported as 7.58%.
COc1ccc(CN2CCN(CC(=O)Nc3cc(Cl)ccc3-n3cncn3)CC2)cc1F gave an IFI of 1.35%.
Compound Oc1cccc(Nc2ccnc3cc(-c4cc5ccccc5o4)ccc23)c1 has an IFI of 5.04%.
For Nc1nc(N)c2c(Sc3ccc(F)cc3)cccc2n1, the IFI was 2.96%.
For CCOC(=O)C(Oc1ccc2ccccc2c1)C(=O)OCC, the IFI was 1.46%.
COc1cc(NC(=O)/C=C/c2cc(F)cc(F)c2F)cc(OCCN2CCN(CCN3CCOCC3)CC2)c1 gave an IFI of 1.46%.
In the case of N#CC(c1ccc(Br)cc1)c1ccc2c(C(F)(F)F)cc(C(F)(F)F)nc2n1 (configuration not stated), the IFI is reported as 13.7%.
Cc1ccc(Oc2c(-c3ccccc3CN3CCCC3CN(C)C)cnn(C)c2=O)cn1 (configuration not stated) gave an IFI of -0%.
In the case of COc1ccc2nccc([C@@H](O)CN3CCC(NS(=O)(=O)c4cc(Br)c(Br)s4)CC3)c2c1, the IFI is reported as 0%.
Compound CN(CCN1CCC(c2c[nH]c3ccccc23)CC1)c1ccc(-c2nc3cc(Cl)c(Cl)cc3[nH]2)cc1 has an IFI of 5.71%.
With COc1ccccc1C1CCN(C2CCC(NC(=O)/C=C/c3cc(C(F)(F)F)cc(C(F)(F)F)c3)CC2)CC1 (configuration not stated) the IFI was 10%.
Work on O=C(c1ccc(Cl)cc1)C1CCCN(C2CCN(CCc3ccccc3)CC2)C1 (configuration not stated) yielded an IFI of 8.11%.
In the case of CS(=O)(=O)NCCCNCc1ccc(-c2cccc(-c3nc4cc(C(F)(F)F)ccc4[nH]3)c2)cc1, the IFI is reported as 2.97%.
In the case of c1ccc(COc2ccc(Nc3ncnc4ccc(-c5ccc(CN6CCSCC6)o5)cc34)cc2)cc1, the IFI is reported as 2.26%.
Cc1nc(N)nc(N)c1CCCOc1ccc(Br)cc1 gave an IFI of 1.42%.
Compound O=[N+]([O-])c1cccc(C(Nc2ccccn2)c2ccc3cccnc3c2O)c1 (configuration not stated) has an IFI of 8.74%.
For Cc1cc(-c2cccc(CNC3CCN(C)CC3)c2)ccc1S(=O)(=O)NCCN1CCCC1, the IFI was 1.9%.
COc1cc2c(cc1OC)CN(CCc1ccc(NC(=O)c3cc4cc(OC(F)(F)F)ccc4[nH]3)cc1)CC2 gave an IFI of 6.19%.
With Cc1ccc(C(C)C)c(Oc2cnc(NC(CO)c3ccccc3)nc2N)c1 (configuration not stated) the IFI was 3.51%.
For NC(=O)c1ccccc1OCC(=O)Nc1cccc(-c2cccc(-c3nc4ccccc4[nH]3)c2)c1, the IFI was 8.55%.
For CN1CCN(C(C(=O)NCc2cc(Cl)cc(Cl)c2)c2ccc(Nc3cccc(C(F)(F)F)c3)cc2)CC1 (configuration not stated), the IFI was 12.9%.
COc1ccc(N2C(=O)c3c(c4ccccc4n3C)C2c2ccccc2O)cc1 (configuration not stated) gave an IFI of 3.96%.
In the case of N#Cc1ccc(-c2ccc(C(=O)NCCCCN3CCC(c4cn(CCCO)c5ccccc45)CC3)cc2)cc1, the IFI is reported as 3.74%.
Work on Cc1ccc(Oc2ccc(CNc3nc(Nc4cccc(F)c4)nc(Nc4cccc(F)c4)n3)cc2)cc1 yielded an IFI of 0%.
For CN1CCN(CCCN(Cc2csc(-c3ccc(CNCc4ccccc4)cc3)n2)C(=O)Nc2ccc3ccccc3c2)CC1, the IFI was 6.25%.
Compound CC(C)COc1ccc(Cl)cc1Cc1ccc(-c2nc3cc(CCN(C)C)ccc3[nH]2)o1 has an IFI of 16%.
For Cc1cc2c(cc1Cl)N(C(=O)Nc1cc(F)cc(-c3cncnc3)c1)CC2, the IFI was -0%.
For CCc1cn2c3c(cc(C(=O)N[C@@H](Cc4cc(F)cc(F)c4)[C@H](O)CNC4CCOCC4)cc13)N(C)S(=O)(=O)CC2, the IFI was 1.46%.
Compound COc1ccc2nccc(NC(=O)CNCc3ccc(-c4ccccc4)cc3)c2c1 has an IFI of 6.11%.
In the case of N#CCCN1CCN(Cc2cccc(-c3ccc(-c4nc5ccccc5[nH]4)cc3)c2)CC1, the IFI is reported as 1.41%.
Cc1nnc2c(N(C(=O)NCCc3ccccc3)C(=O)NCCc3ccccc3)cc3cc(Cl)ccc3n12 showed an IFI of -0%.
CNC(=O)/C=C/c1cc(NC(=O)Nc2cc(C)nc3c(F)cccc23)ccc1OC showed an IFI of 1.41%.
CCN1CCC(NCc2ccc(-c3ccc(Cl)s3)cc2)CC1 gave an IFI of 3.6%.
With Cc1nc(O)c2c(ccc3ccc(CN(C)c4ccc(C(=O)N[C@@H](CCC(=O)O)C(=O)O)cc4)cc32)n1 the IFI was -0%.
For Cc1ccc(Nc2nccc(Nc3ccc4c(C)n[nH]c4c3)n2)cc1F, the IFI was 2.13%.
With Cc1cc(N[C@@H](Cc2ccccc2)C(=O)NCCOc2ccccc2)nc(NCc2ccccc2C)n1 the IFI was 9.76%.
NC1=NC(c2ccccc2)(c2ccccc2)C(=O)N1CCOc1ccccc1 gave an IFI of 5%.
Work on Cc1cccc(Nc2c(-c3cc(Br)ccc3O)nc3ncccn23)c1 yielded an IFI of 8.7%.
COc1ccc2nccc([C@@H](O)CN3CCC(NC(=O)/C=C/c4ccc5ccccc5n4)CC3)c2c1 gave an IFI of 2.94%.
For CCCC(C)NC(=O)C(N)Cc1cccc(I)c1 (configuration not stated), the IFI was -0%.
In the case of CN1CCN(c2ccc(Nc3c4ccccc4nc4ccccc34)cc2)CC1, the IFI is reported as 6.72%.
For Nc1nc(N)c2c(n1)CCC(c1ccccc1)C2 (configuration not stated), the IFI was -0%.
In the case of CCCCCCN1CCC(CNCc2cccc(Cl)c2)CC1, the IFI is reported as 2.08%.
With COc1cc(N)c(Cl)cc1C(=O)NCC1CCN(c2nc(C)cc(C)n2)CC1 the IFI was 2.33%.
Clc1cccc(Nc2ccc3c(N4CCCCC4)ncnc3n2)c1 gave an IFI of 8.33%.
Cc1[nH]c(C)c(-c2ccc(Oc3ccc(Cl)cc3)cc2)c(=O)c1Cl showed an IFI of 0%.
Compound CCCCN(C)CC#Cc1ccc(-c2ccc3[nH]c(C)c(Br)c(=O)c3c2)cn1 has an IFI of 0.92%.
CC1CN(c2cnn(Cc3ccc(NC(=O)Nc4cccc(C(F)(F)F)c4)cc3)c(=O)c2Cl)CC(C)N1 (configuration not stated) showed an IFI of 0.69%.
Cc1cc(N2C(N)=NC(N)=NC2(C)C)ccc1Cl gave an IFI of 0.75%.
In the case of O=C(NCc1cccc(F)c1)Nc1ccc(-c2cccc(-c3nc4ccccc4[nH]3)c2)cc1, the IFI is reported as 5.05%.
With O=C1CCCN1CCCNCc1cccc(-c2ccc(-c3nc4cc(C(F)(F)F)ccc4[nH]3)s2)c1 the IFI was 5.77%.
For Oc1ccc(CCNCCCCNCCc2ccc(Cl)cc2)cc1O, the IFI was 6.12%.
With O=S(=O)(Nc1cccc(CCN2CCC(N3CCCCC3)CC2)c1)c1cccc2ccccc12 the IFI was 8.06%.
Cn1cncc1-c1ccc2ncnc(Nc3ccc4c(cnn4Cc4ccccc4)c3)c2c1 showed an IFI of 4.08%.
COc1cc2nc(N3CCC(CNC(=O)c4ccc(NC(=O)c5ccc(Cl)cc5)cc4)CC3)nc(N)c2cc1OC gave an IFI of 2.8%.
For CCN(CC)CCN(Cc1ccc(-c2ccc(C(F)(F)F)cc2)cc1)C(=O)Cn1c(CCc2cccc(F)c2F)cc(=O)cc1-c1ccccc1, the IFI was 11.3%.
COc1ccc(C(=O)NCC(C)(C)c2nc(-c3ccc(Cl)c(O)c3)c(-c3ccncc3)[nH]2)cc1OCCN(C(C)C)C(C)C gave an IFI of 1.47%.
In the case of CN1CCN(c2ccc(Nc3c(C(N)=O)cnc4cc(-c5ccoc5)ccc34)cc2)CC1, the IFI is reported as 4.73%.
CCCc1cc(Cc2cnc(N)nc2N)cc(OC)c1OC gave an IFI of 0.73%.
COc1ccccc1CNC(=O)c1cc(C2CC2)nc2c1cnn2C(C)C gave an IFI of 1.59%.
In the case of COc1ccc(-c2cccc(CNCc3ccc(F)cc3)c2)cc1S(=O)(=O)NCCN1CCCC1, the IFI is reported as 4.85%.
With COc1cc(-c2ccc3c(-c4ccc(C(=O)N5CCN(C)CC5)cc4)n[nH]c3n2)cc(OC)c1OC the IFI was 4%.
In the case of CC(C)c1ccc(NC(=O)NC2CCN(CCCCCN(C)C(=O)/C=C/c3ccc(Cl)c(Cl)c3)C2)cc1 (configuration not stated), the IFI is reported as 6.72%.
In the case of Cc1cc(NCCC(=O)NCCc2ccccc2)nc(NCCc2ccc(F)cc2)n1, the IFI is reported as 4.55%.
With COc1ccc(CNC(=O)C2Cc3ccccc3CN2Cc2ccc3ccccc3c2)cc1 (configuration not stated) the IFI was 2.13%.
Cc1cc(C(F)(F)F)nn1-c1ccc(NC(=O)c2ccco2)cc1 showed an IFI of -0%.
With O=C(CNC1CCCCC1)Nc1cccc(C(=O)Nc2cccc(C(F)(F)F)c2)c1 the IFI was 3.42%.
Cc1cc(NC(=O)Nc2ccc(C(C)(C)C)cc2)c2ccccc2n1 gave an IFI of 3.7%.
In the case of O=S(=O)(Nc1cccc(CCN2CCCCC2CCN2CCCC2)c1)c1ccc(Oc2ccccc2)cc1 (configuration not stated), the IFI is reported as 17.5%.
Compound O=C(/C=C/c1ccc(Cl)c(Cl)c1)NCCCCCN1CCCC(C(=O)Nc2ccc(F)c(Cl)c2)C1 (configuration not stated) has an IFI of 13.2%.
Work on COc1ccccc1C1CCN(CCCCNC(=O)c2ccc(NC(=O)c3ccc(Cl)cc3)cc2)CC1 yielded an IFI of 2.68%.
